# Reference: a collection of fitness landscapes (doi:10.1126/science.1257360)
# The other results are listed elsewhere or left out.
# B1: PhoQ; a variant is named by its letters at X, in order, P23837 (parent)
# chain: MKKLLRLFFPLSLRVRFLLATAAVVLVLSLAYGMVALIGYSVSFDKTTFRLLRGESNLFYTLAKWENNKLHVELPENIDKQSPTMTLIYDENGQLLWAQRDVPWLMKMIQPDWLKSNGFHEIEADVNDTSLLLSGDHSIQQQLQEVREDDDDAEMTHSVAVNVYPATSRMPKLTIVVVDTIPVELKSSYMVWSWFIYVLSANLLLVIPLLWVAAWWSLRPIEALAKEVRELEEHNRELLNPATTRELTSLVRNLNRLLKSERERYDKYRTTLTDLTHSLKTPLXXLQXXLRSLRSEKMSVSDAEPVMLEQISRISQQIGYYLHRASMRGGTLLSRELHPVAPLLDNLTSALNKVYQRKGVNISLDISPEISFVGEQNDFVEVMGNVLDNACKYCLEFVEISARQTDEHLYIVVEDDGPGIPLSKREVIFDRGQRVDTLRPGQGVGLAVAREITEQYEGKIVAGESMLGGARMEVIFGRQHSAPKDE
# Variants of: B1
# Test: enrichment ratio after two sorts for PhoP signalling (ratio (wild type AVST 3.29)); higher = more functional
# Conditions: with PhoP (E. coli)
row,Variant,enrichment ratio
1,TTGH,10.5
2,ENEY,≤ 0.25
3,SQFL,≤ 0.25
4,FRCK,≤ 0.25
5,TQGL,5.29
6,YPHH,≤ 0.25
7,VEHE,≤ 0.25
8,FMVK,≤ 0.25
9,EYEV,≤ 0.25
10,QTKV,≤ 0.25
11,MAFM,14.7
12,QQHC,≤ 0.25
13,SGVQ,20.5
14,APWD,≤ 0.25
15,KMYR,≤ 0.25
16,PIIA,≤ 0.25
17,EDRF,≤ 0.25
18,KRYD,≤ 0.25
19,MMAE,0.333
20,WQCF,≤ 0.25
21,TKEN,≤ 0.25
22,EAIS,≤ 0.25
23,IVCS,≤ 0.25
24,SLNY,≤ 0.25

row,Variant,enrichment ratio
1,RMIY,≤ 0.25
2,TALK,9.82
3,ETIK,≤ 0.25
4,MVSM,12.3
5,HLNF,≤ 0.25
6,AQNL,≤ 0.25
7,GQNN,≤ 0.25
8,MPAH,≤ 0.25
9,NGFE,≤ 0.25
10,QSHP,≤ 0.25
11,WIWY,≤ 0.25
12,LLNM,≤ 0.25
13,ATHF,≤ 0.25
14,SPHS,≤ 0.25
15,EDMV,≤ 0.25
16,LPPV,≤ 0.25
17,RWFS,≤ 0.25
18,NMLA,≤ 0.25
19,AATS,3.19
20,YLYI,≤ 0.25
21,FAPT,≤ 0.25
22,LQWL,≤ 0.25
23,VVLE,≤ 0.25
24,DTGV,0.428

row,Variant,enrichment ratio
1,TVWN,2.25
2,ATRM,≤ 0.25
3,MTTH,≤ 0.25
4,VHMN,≤ 0.25
5,YMIQ,≤ 0.25
6,LTMC,2.73
7,CSSI,≤ 0.25
8,DLMV,≤ 0.25
9,IYYD,≤ 0.25
10,AFPG,≤ 0.25
11,ALAF,8.13
12,PSTV,≤ 0.25
13,QLFD,3.39
14,GHEM,≤ 0.25
15,VQGV,≤ 0.25
16,DYIK,≤ 0.25
17,QLYT,≤ 0.25
18,KCQA,≤ 0.25
19,SIIA,2.51
20,IDEA,≤ 0.25
21,SIGT,1.85
22,VVVK,≤ 0.25
23,TDMV,8.54
24,GCKI,≤ 0.25

row,Variant,enrichment ratio
1,RHPS,≤ 0.25
2,QANF,21
3,MNVM,6.13
4,LDRH,≤ 0.25
5,LVLH,≤ 0.25
6,NLVY,≤ 0.25
7,IHSG,≤ 0.25
8,NGRW,≤ 0.25
9,NEQC,≤ 0.25
10,AFDS,≤ 0.25
11,YDKF,≤ 0.25
12,KTKC,≤ 0.25
13,MFSD,≤ 0.25
14,DEQD,≤ 0.25
15,EYCA,≤ 0.25
16,KMGK,≤ 0.25
17,QEDY,≤ 0.25
18,SGIN,11.4
19,HRRF,≤ 0.25
20,PYCI,≤ 0.25
21,VRNL,≤ 0.25
22,ARDK,≤ 0.25
23,NGSV,≤ 0.25
24,YDCV,≤ 0.25

row,Variant,enrichment ratio
1,VEYY,≤ 0.25
2,GDHM,≤ 0.25
3,YMGY,≤ 0.25
4,PSIA,≤ 0.25
5,AFTP,≤ 0.25
6,CLTR,≤ 0.25
7,MSIR,≤ 0.25
8,SVAS,8.9
9,PHRF,≤ 0.25
10,STPS,≤ 0.25
11,EVAK,≤ 0.25
12,AVDF,≤ 0.25
13,HEVK,≤ 0.25
14,QLHT,≤ 0.25
15,SGAI,12.3
16,LICQ,≤ 0.25
17,EIKL,≤ 0.25
18,ATLG,12.3
19,DDIL,≤ 0.25
20,MFVM,≤ 0.25
21,NLCK,≤ 0.25
22,HMKL,≤ 0.25
23,ESHM,≤ 0.25
24,GELS,8.59

row,Variant,enrichment ratio
1,AVAN,≤ 0.25
2,HLTV,≤ 0.25
3,DMRK,≤ 0.25
4,GVWW,≤ 0.25
5,WRLY,≤ 0.25
6,TRNL,0.323
7,MGAI,16.1
8,DRMV,≤ 0.25
9,VLQG,≤ 0.25
10,GSRR,≤ 0.25
11,YMKK,≤ 0.25
12,PNMP,≤ 0.25
13,VTCS,≤ 0.25
14,FMES,≤ 0.25
15,IMAK,≤ 0.25
16,KAVR,≤ 0.25
17,YQRK,≤ 0.25
18,SWDN,≤ 0.25
19,GGAY,≤ 0.25
20,FGAK,≤ 0.25
21,LSME,≤ 0.25
22,RFPK,≤ 0.25
23,IIKS,≤ 0.25
24,SSYI,2.05

row,Variant,enrichment ratio
1,RPCD,≤ 0.25
2,MHCM,≤ 0.25
3,VHNM,≤ 0.25
4,GVMQ,5.97
5,HWFV,≤ 0.25
6,SAPL,1.3
7,EGDN,≤ 0.25
8,YFGD,≤ 0.25
9,ENSR,≤ 0.25
10,HYHE,≤ 0.25
11,RTDY,≤ 0.25
12,PFRF,≤ 0.25
13,DILG,≤ 0.25
14,ELQG,≤ 0.25
15,QQCP,≤ 0.25
16,VDGD,≤ 0.25
17,SDNR,≤ 0.25
18,KHEF,≤ 0.25
19,MKMT,≤ 0.25
20,YFAW,≤ 0.25
21,FNIA,≤ 0.25
22,TLAI,3.87
23,TSPM,≤ 0.25
24,GPCT,≤ 0.25

row,Variant,enrichment ratio
1,TSCG,7.32
2,PDWV,≤ 0.25
3,MHPV,≤ 0.25
4,RDPR,≤ 0.25
5,VHGR,≤ 0.25
6,GYAE,≤ 0.25
7,WWIY,≤ 0.25
8,NPKR,≤ 0.25
9,RIQF,≤ 0.25
10,FHHV,≤ 0.25
11,HLYV,≤ 0.25
12,SGIH,7.04
13,QRHA,≤ 0.25
14,EGTA,≤ 0.25
15,ATIR,3.68
16,VMPH,≤ 0.25
17,PNIL,≤ 0.25
18,TPEG,≤ 0.25
19,DMEI,≤ 0.25
20,FCGA,≤ 0.25
21,NYMD,≤ 0.25
22,KNRM,≤ 0.25
23,HIAW,≤ 0.25
24,EGED,≤ 0.25

row,Variant,enrichment ratio
1,ETHL,≤ 0.25
2,FNCG,≤ 0.25
3,SYLS,0.315
4,MRKQ,≤ 0.25
5,VMYH,≤ 0.25
6,KEIS,≤ 0.25
7,AQGS,5.42
8,PAKA,≤ 0.25
9,FEGE,≤ 0.25
10,DSRQ,≤ 0.25
11,ITRV,≤ 0.25
12,ECCD,≤ 0.25
13,QNSG,≤ 0.25
14,TRDW,≤ 0.25
15,RHCE,≤ 0.25
16,YWFG,≤ 0.25
17,IYAS,≤ 0.25
18,RRWL,≤ 0.25
19,HSMY,≤ 0.25
20,GADH,≤ 0.25
21,PHYQ,≤ 0.25
22,NGYE,≤ 0.25
23,VLVN,≤ 0.25
24,ITMP,≤ 0.25

row,Variant,enrichment ratio
1,MYVQ,≤ 0.25
2,PVKF,≤ 0.25
3,PTRN,≤ 0.25
4,PQDR,≤ 0.25
5,FYAR,≤ 0.25
6,SLEF,≤ 0.25
7,DNSA,1.38
8,VFEL,≤ 0.25
9,SRDL,≤ 0.25
10,KANT,≤ 0.25
11,EKWI,≤ 0.25
12,FING,≤ 0.25
13,VWQL,≤ 0.25
14,ITFL,≤ 0.25
15,ARFY,≤ 0.25
16,YWQS,≤ 0.25
17,YWPE,≤ 0.25
18,YERM,≤ 0.25
19,PRYY,≤ 0.25
20,ICRA,≤ 0.25
21,NAAP,≤ 0.25
22,KVPY,≤ 0.25
23,HLLP,≤ 0.25
24,VVPE,≤ 0.25

row,Variant,enrichment ratio
1,PRMG,≤ 0.25
2,MTDP,≤ 0.25
3,ISDK,≤ 0.25
4,CTFL,≤ 0.25
5,HQTD,≤ 0.25
6,ERGA,≤ 0.25
7,CTSS,≤ 0.25
8,WHHS,≤ 0.25
9,NSDT,≤ 0.25
10,TVVV,≤ 0.25
11,HEMQ,6.08
12,KAKV,≤ 0.25
13,IHEW,≤ 0.25
14,VEID,≤ 0.25
15,EKFT,≤ 0.25
16,MPMI,≤ 0.25
17,NTDR,≤ 0.25
18,HCAP,≤ 0.25
19,HRFF,≤ 0.25
20,QIPI,≤ 0.25
21,FYSA,≤ 0.25
22,WGHD,≤ 0.25
23,NEKI,≤ 0.25
24,LNKM,≤ 0.25

row,Variant,enrichment ratio
1,RWRN,≤ 0.25
2,VLDI,≤ 0.25
3,GADK,≤ 0.25
4,IWCM,≤ 0.25
5,STAY,3.54
6,FADT,≤ 0.25
7,RRWV,≤ 0.25
8,NDKA,≤ 0.25
9,ICYF,≤ 0.25
10,IGYW,≤ 0.25
11,YYQK,≤ 0.25
12,TRKY,≤ 0.25
13,WHQY,≤ 0.25
14,VQFV,≤ 0.25
15,NVPA,≤ 0.25
16,FFPD,≤ 0.25
17,RGPK,≤ 0.25
18,YVDW,≤ 0.25
19,EDTG,≤ 0.25
20,AGLK,5.36
21,FRVF,≤ 0.25
22,LRQQ,≤ 0.25
23,PEDV,≤ 0.25
24,MHII,≤ 0.25

row,Variant,enrichment ratio
1,AFIK,≤ 0.25
2,YWCP,≤ 0.25
3,KSPF,≤ 0.25
4,PAFH,≤ 0.25
5,TLNK,4.31
6,RPPH,≤ 0.25
7,GCRD,≤ 0.25
8,NYSF,≤ 0.25
9,AHIP,≤ 0.25
10,GFEF,≤ 0.25
11,LFKQ,≤ 0.25
12,QVDL,1.84
13,WSAD,≤ 0.25
14,TMSN,12.5
15,NAMF,≤ 0.25
16,WPTW,≤ 0.25
17,PRNN,≤ 0.25
18,IQGC,≤ 0.25
